# Measured values as given in PubChem BioAssay AID463173 (ICCB-Longwood Screening Facility, Harvard Medical School, 2010).
# Among all 52,000 compounds or so, about 1,700 (3.3%) were called active. Cut-off read from the data, not from the text of the source: active = survival mostly below about 52% (no sharp cut-off); inactive = mostly above about 56%. The list shows a part of the results.
# Tested on: Wild type
# Experiment: growth inhibition of S. aureus wild type versus tarO mutant, primary screen, teichoic acid synthesis inhibitors, RN4220, OD600 (AID 463173)
# Details: S. aureus RN4220 wild type/DeltatarO growth, OD600, 18 h, hits give low values, screened at 18.75 µg/mL (by protocol)
row,Structure (SMILES),survival
1,CCc1cccc(NC(=O)Cn2ncc3c([nH]c4ccc(C)cc43)c2=O)c1,inactive: 100%
2,CCOc1ccccc1NC(=O)CCc1c(C)nc2c3cccnc3nn2c1C,inactive: 80%
3,COc1ccc(Cl)cc1C1CC(=O)Nc2cc3c(cc21)OCCO3 (centres undefined),inactive: 85%
4,CCCCNc1sc(S(=O)(=O)CCC)nc1S(=O)(=O)c1ccc(C)cc1,inactive: 92%
5,CCNC(=O)c1c2c(nc3ccccc13)C(=O)N(C1CCCCC1)C2,inactive: 124%
6,O=C(Cn1c(SCc2ccccc2F)nc2cccnc21)Nc1ccc(F)c(Cl)c1,inactive: 72%
7,CC1=C/C(=N/OC(=O)c2ccccc2)C=CC1=O,inactive: 105%
8,Cc1ccc(CN2C(=O)c3ccccc3Sc3ccc(C(=O)NC4CCCC4)cc32)cc1,inactive: 76%
9,COc1cccc(C(=O)NCCc2csc(-c3cccc(F)c3)n2)c1OC,inactive: 70%
10,Cc1ccc(C(=O)N2CCc3cc(CNC(=O)CCc4ccccc4)ccc32)cc1,inactive: 127%
11,O=C(NC1CC(=O)N(c2ccccc2)C1)c1ccco1 (centres undefined),inactive: 74%
12,CCc1cccc(NC(=O)CN(c2ccc(C)cc2)S(=O)(=O)c2cccs2)c1,inactive: 85%
13,O=C(Nc1ccc(F)cc1)Nc1ccc2snnc2c1,inactive: 45%
14,COc1cccc(CNC(=O)C(CC(C)C)NS(=O)(=O)c2ccc3c(c2)oc(=O)n3C)c1 (centres undefined),inactive: 126%
15,Cc1c2cnn(CC(=O)N3CCCCC3)c(=O)c2c(C)n1Cc1ccc(F)cc1,inactive: 77%
16,CCC1CCCCN1CCCNC(=O)c1[nH]c2ccccc2c1Sc1ccc(Cl)cc1 (centres undefined),active: -1%
17,CCOc1ccc(C(c2c(O)cc(C)n(CCOC)c2=O)N2CCN(c3ccccc3)CC2)cc1 (centres undefined),inactive: 66%
18,CCN(C(=O)CCS(=O)(=O)c1cc2[nH]c(=O)c(=O)[nH]c2cc1C)c1ccccc1,inactive: 79%
19,COc1ccc(-c2noc(N3CCC(C(=O)Nc4ccc(F)cc4Cl)CC3)n2)cc1,inactive: 82%
20,COc1ccccc1OCc1nnc(SCCN2CCOCC2)o1,inactive: 102%
21,Cc1ccc2c(c1)C(=O)OC(C(=O)Nc1ncc(Cc3ccc(C(C)C)cc3)s1)C2 (centres undefined),inactive: 85%
22,Cc1ccc(Cl)cc1NS(=O)(=O)c1ccc2oc(=O)c3ncn(C)c3c2c1,inactive: 136%
23,Cc1ccc(-c2cn3nc(N4CCCC(C(=O)Nc5ccc(F)cc5)C4)sc3n2)cc1 (centres undefined),inactive: 83%

row,Structure (SMILES),survival
1,Cc1ccc2sc(N3CCN(C(=O)CCS(=O)(=O)c4ccc(Cl)cc4)CC3)nc2c1C,inactive: 75%
2,O=C(NCCc1ccc(F)cc1)C(=O)NCC(c1cccs1)S(=O)(=O)c1ccc(F)cc1 (centres undefined),inactive: 74%
3,CCOC(=O)/C(C#N)=C\c1cccn1C,inactive: 104%
4,CCCN(CCC)C(=O)Cn1c(=O)n(-c2cccc(OC)c2)c(=O)c2c(C)c(C(=O)N(C)C)sc21,inactive: 59%
5,Cc1ccc(N(CC(=O)N2CCN(c3ccc(Cl)cc3)CC2)S(=O)(=O)c2c(C)nn(C)c2C)cc1,inactive: 77%
6,CCC(Sc1nc2ncccc2[nH]1)C(=O)Nc1cccc(OC)c1 (centres undefined),inactive: 60%
7,COCCCn1c(=O)c2sccc2n2c(CCCC(=O)Nc3cc(C)cc(C)c3)nnc12,inactive: 85%
8,O=C(O)C1CCCN1C(=O)c1cncc(Br)c1 (centres undefined),inactive: 106%
9,COc1ccccc1CNC(=O)C1CCCN(C(=O)c2cnn(-c3ccc(F)cc3)c2-n2cccc2)C1 (centres undefined),inactive: 88%
10,COc1ccccc1OCCCSc1nc(-c2ccc(C(C)(C)C)cc2)nc2cc(=O)[nH]n12,inactive: 88%
11,Cc1ccc(NC(=O)C(Cc2ccccc2)n2cccc2)cc1 (centres undefined),inactive: 96%
12,COc1ccc(OC)c(NCc2cccn2-c2nnc(N3CCCCC3)s2)c1,inactive: 66%
13,CN1CCc2c(sc3c2C(=O)NC(c2ccc(OC(=O)c4ccccc4)cc2)N3)C1 (centres undefined),inactive: 73%
14,Cc1ccc(C)c(S(=O)(=O)c2cn(C)c3cc(N4CCCCC4C)c(F)cc3c2=O)c1 (centres undefined),inactive: 93%
15,COc1ccc(CNC(=O)Cn2ncc3c4ccccc4n(Cc4cccc(Cl)c4)c3c2=O)cc1,inactive: 81%
16,COc1ccc(C)cc1NC(=O)c1ccc2c(=O)n3c(nc2c1)CCCCC3,inactive: 76%
17,Cn1c(=O)c2c(-c3ccc(Cl)cc3)n(Cc3ccc(Cl)cc3)cc2n(C)c1=O,inactive: 49%
18,Cc1cccc(-c2nc3c4ccccc4nc(N4CCN(c5ccccc5F)CC4)n3n2)c1,inactive: 71%
19,Cc1ccc(CNC(=O)NCc2noc3ccc(C)cc23)cc1,inactive: 84%
20,COc1ccc(-c2c(C)c3ccc(O)c(CN4CCOCC4)c3oc2=O)cc1,inactive: 97%
21,CCn1c2ccccc2c2cc(NC(=O)COc3ccc(C)cc3C)ccc21,active: 8%
22,COC(=O)c1cc2sc(Cl)cc2n1Cc1c(C)cc(C)cc1C,inactive: 100%
23,Cc1ccc(Cn2c(CNS(=O)(=O)c3cccc([N+](=O)[O-])c3)nc3cccnc32)cc1,inactive: 121%

row,Structure (SMILES),survival
1,COc1ccc(-c2cc(C)no2)cc1S(=O)(=O)Nc1c(C)cc(C)cc1C,inactive: 82%
2,CCOc1ccc(OCC)c(NS(=O)(=O)c2cc(-c3cnc(C)o3)ccc2OC)c1,inactive: 78%
3,COc1ccc(OC)c(CNC(=O)c2ccc(C)c(NC(=O)c3nsc4ccccc34)c2)c1,inactive: 83%
4,CCCCNC(=O)C1CCN(S(=O)(=O)CCC)CC1,inactive: 83%
5,CCc1nn2c(=O)cc(COC(=O)c3cccc(NC(=O)c4cccs4)c3)nc2s1,inactive: 69%
6,CCOC(=O)c1c(-c2ccccc2)csc1NC(=O)c1cc(=O)c2ccc(C)cc2o1,inactive: 90%
7,COc1ccc(OC)c(NC(=O)c2c(N3CCCC3=O)c3cc(OC)ccc3n2C)c1,inactive: 71%
8,Cc1nc2nncn2c(Nc2ccccc2)c1C,inactive: 83%
9,CCOC(=O)C1CCN(C(c2ccc(SC)cc2)c2c(O)cc(C)n(Cc3ccco3)c2=O)CC1 (centres undefined),inactive: 135%
10,Cc1ccccc1-n1nc(CO)c(C(=O)NCc2cccnc2)n1,inactive: 91%
11,CCc1cccc(C)c1NC(=O)Cn1cnc2c1c(=O)n(C)c(=O)n2C,inactive: 71%
12,COCCNC(=O)Nc1cc(C(=O)NCc2ccc(C(C)C)cc2)ccc1N1CCCC1,inactive: 88%
13,COc1cc(C2NC(=O)c3c(sc4c3CCN(C)C4)N2)cc(Br)c1OC(=O)c1ccc(C)cc1 (centres undefined),inactive: 75%
14,COc1ccc(N2CCN(C(=O)CCn3c(=O)[nH]c4cc(OC)c(OC)cc4c3=O)CC2)cc1,inactive: 75%
15,Cc1ccc(CC/C=N/NC(N)=S)o1,inactive: 117%
16,CCc1ccc(CNC(=O)C(C)n2ccc3cc(S(=O)(=O)N4CCCCCC4)ccc32)cc1 (centres undefined),inactive: 75%
17,CCN1CCN(C(C)C(=O)N(C(C)C)C(C)C)CC1 (centres undefined),inactive: 105%
18,COC(=O)c1c(NC(=O)CCCOc2ccc(C(C)(C)C)cc2)sc2c1C(C(=O)OC)CC2 (centres undefined),active: -2%
19,Cc1ccc(NC(=O)C2CCN(S(=O)(=O)c3ccc4[nH]c5c(c4c3)CCCCC5)CC2)cc1,inactive: 83%
20,COc1ccccc1N1CCN(c2ncnc3onc(-c4ccc(F)cc4)c23)CC1,inactive: 84%
21,Cc1cccc(NC(=O)CCS(=O)(=O)c2cccc3nsnc23)c1C,inactive: 84%
22,COc1cccc(C(=O)NCCc2csc(-c3ccc(Cl)cc3)n2)c1,inactive: 72%
23,O=C(NCc1cccc(F)c1)C1CCCN(C(=O)N2CCOc3ccccc32)C1 (centres undefined),inactive: 85%

row,Structure (SMILES),survival
1,CCOC(=O)CSC1=Nc2ccccc2C2=NC(CCC(=O)NCc3ccc(F)cc3)C(=O)N12 (centres undefined),inactive: 88%
2,CC1CN(C(=O)N2CCC(C(=O)NCc3cccs3)CC2)c2cc(Cl)ccc2O1 (centres undefined),inactive: 82%
3,Cc1ccc(C)c(NC(=O)C2CCCN(c3nc4ccccc4s3)C2)c1 (centres undefined),inactive: 76%
4,O=c1nc(N2CCCC2)nc(N2CCCC2)[nH]1,inactive: 104%
5,CCc1ccccc1NC(=O)C1CCN(S(=O)(=O)c2ccccc2)CC1,inactive: 72%
6,CC(C)C(Nc1ncnc2c1oc1ccccc12)C(=O)O (centres undefined),inactive: 118%
7,CCCCOc1ccc(C(=O)Nc2ccc3oc(-c4cccnc4)nc3c2)cc1,inactive: 71%
8,COc1ccc(OCC(=O)N2CCC(c3nc4ccccc4s3)CC2)cc1,inactive: 76%
9,O=C(NC1CCCC1)c1ccc(CSc2nc3ccncc3n2Cc2cccc(F)c2)cc1,inactive: 75%
10,CCOc1cc(C(=O)NCc2ccc3c(c2)CCN3C(=O)c2ccc(F)cc2)cc(OCC)c1OCC,inactive: 129%
11,COc1ccc(CNC(=O)C(C)Sc2nc(-c3ccccc3)cc(C(F)(F)F)n2)cc1 (centres undefined),inactive: 149%
12,Cc1ccc(CNC(=O)c2ccc3c(c2)c(C)c(C)n3Cc2ccccc2)o1,inactive: 91%
13,O=C(COc1ccccc1Cl)OCc1cc(=O)n2nc(C3CCCCC3)sc2n1,inactive: 71%
14,Cc1cccc(S(=O)(=O)c2cn(Cc3ccccc3)c3cc(N4CCOCC4)c(F)cc3c2=O)c1,inactive: 71%
15,CC1Cc2cc(S(=O)(=O)NCCc3ccc(Cl)cc3)ccc2N1C(=O)C1CCC1 (centres undefined),inactive: 80%
16,COc1ccccc1Cn1cc(C(=O)c2ccc(Cl)cc2)c(=O)c2ccccc21,inactive: 101%
17,Cc1c2cnn(CC(=O)NCC(C)c3ccccc3)c(=O)c2c(C)n1Cc1cccc(Cl)c1 (centres undefined),inactive: 95%
18,CCn1ccc2cc(S(=O)(=O)N3CCC(C(=O)NCCc4ccccc4Cl)CC3)ccc21,inactive: 75%
19,CCc1ccc(C(=O)c2cnc3ccc(F)cc3c2S(=O)(=O)c2ccccc2)cc1,inactive: 135%
20,CC(C)OCCCNC(=O)c1cn(C)c2ccc(S(=O)(=O)N3CCCCCC3)cc2c1=O,inactive: 131%
